42 sequences from publication PMC7819943, “Rice protein-binding microarrays: a tool to detect cis-acting elements near promoter regions in rice” can be followed below.

This is one part of the list.

The test addresses T1, OsWOX13 (Oryza sativa, UniProt Q5QMM3 1-267).
T1 sequence: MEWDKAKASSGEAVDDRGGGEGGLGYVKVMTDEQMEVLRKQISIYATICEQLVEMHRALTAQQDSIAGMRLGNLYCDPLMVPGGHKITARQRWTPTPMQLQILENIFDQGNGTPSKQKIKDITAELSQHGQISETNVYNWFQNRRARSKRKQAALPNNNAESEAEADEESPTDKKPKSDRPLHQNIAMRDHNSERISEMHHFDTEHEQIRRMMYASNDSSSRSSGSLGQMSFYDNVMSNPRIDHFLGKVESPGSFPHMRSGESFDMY
As to the kind of experiment: protein-binding microarray (RPBM); PBS, 2% BSA, 51.3 ng/ul salmon testes DNA, 50 uM zinc acetate, 200 nM TF, 25 C, 1 h; high values mean tight binding. Particulars: protein: recombinant; tags: N-terminal polyhistidine and DsRed monomer fusion (pET32a); label: CyDye5-dUTP incorporated in the synthesized complementary strand; 3' TTTTT single-stranded linker to array surface; dsDNA, one strand shown. Summed up:
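Polyhistidine-tagged DsRed fusions of transcription factors, joined at the N-terminus, were expressed in E. coli BL21-CodonPlus and isolated on Ni–NTA. They were incubated at 200 nM for 1 h at 25 °C on a custom Agilent array, double-stranded and BSA-blocked, in PBS with 2% BSA, salmon testes DNA and 50 µM zinc acetate. The binding signal is per-feature fluorescence intensity (arbitrary units) read on an Axon 4000B scanner after washing.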
Take “TGCCTTGATTAATCCGTCGTCGTTGTGTCGTCGCACGGCGCGGAGTCACCTAGTGCAG”: the binding signal is 29200 fluorescence intensity (a.u.).
Consider “ATTGTGATAACGTTTCATAATTACTATGTGCTCCTTATGTCGGAGTCACCTAGTGCAG”, for which the binding signal is 6850 fluorescence intensity (a.u.).
On to “ATAACATGTCAGTAATTACTTGAAATAGAAAATCAACTAACGGAGTCACCTAGTGCAG”, for which the binding signal is 13200 fluorescence intensity (a.u.).
The result for “CCATTGACAATTAATTAGACCCAACGCAACTCAGCTGCTTCGGAGTCACCTAGTGCAG” reads 26900 fluorescence intensity (a.u.).
The result for “AGCCCGATTTTCTGTTCATTTCCACGTTTGATTTGGTGCACGGAGTCACCTAGTGCAG” reads 3350 fluorescence intensity (a.u.).
“TTTCTTGATTTGGTTGGGATTGGTTGTTCTTGGGCTTATCCGGAGTCACCTAGTGCAG”: the binding signal was 24600 fluorescence intensity (a.u.).
“CAATTTATCCCAATTATGATCTGATTATACCATTGTTTTCCGGAGTCACCTAGTGCAG”: the binding signal is 6600 fluorescence intensity (a.u.).
The value for “AAAGTGATTTGTAAGATTGTTCACAAAATGTACATCTCTTCGGAGTCACCTAGTGCAG” was 20000 fluorescence intensity (a.u.); that for “ATTTTCTGTCAACTTCGACTAACAAAATAAAATGACCAGCCGGAGTCACCTAGTGCAG” was 4590 fluorescence intensity (a.u.).
The result for “GTTAACGACCAAAATTGGTAGCATCGACACCTCCCTGGGCCGGAGTCACCTAGTGCAG” reads 4240 fluorescence intensity (a.u.).
Consider “CTAAACTGCACGTAACCTCCAATCTTTGAGAATACCATGGCGGAGTCACCTAGTGCAG”, for which the binding signal is 14200 fluorescence intensity (a.u.).
The result for “TCATGATTTCTGAATCTTTGTCTTTTCCTTGAGTAGCTATCGGAGTCACCTAGTGCAG” reads 7640 fluorescence intensity (a.u.).
The result for “AAAGCAGCATCCATTTAATTTAATTTAATTTCCCCTCTCCCGGAGTCACCTAGTGCAG” reads 4500 fluorescence intensity (a.u.).
The result for “GTCAAACCTAATCAATATACATTTGTCGGCTTAGCCATCGCGGAGTCACCTAGTGCAG” reads 5560 fluorescence intensity (a.u.); that for “TTCGATTGATTGATAGTTGATTGTGTGTTTACAATTGAACCGGAGTCACCTAGTGCAG”, 52600 fluorescence intensity (a.u.); that for “TTAAATGTTAGTTTAAATGAAATTAATTTCGTGTTGTAAACGGAGTCACCTAGTGCAG”, 14200 fluorescence intensity (a.u.).
For “TGCAAATTACCCATAAATCAAAGGGTATCCGACCTATATTCGGAGTCACCTAGTGCAG”, the binding signal is 11700 fluorescence intensity (a.u.).
On to “TAAGTGATTTAAATTGTCTGTAAACTGATGGCAACAATATCGGAGTCACCTAGTGCAG”, for which the binding signal was 46400 fluorescence intensity (a.u.).
The result for “TCCTATTCAATCATAAATAAATATTCTAATGGATGAGGTGCGGAGTCACCTAGTGCAG” reads 25900 fluorescence intensity (a.u.); that for “CTAATTTAAATTTTGTTTAGTCCTAATCGAAGCTGAAGACCGGAGTCACCTAGTGCAG”, 21200 fluorescence intensity (a.u.).
The result for “AGCTACTAATCATCTCTGAATTAATCTGCTTACTACTCATCGGAGTCACCTAGTGCAG” reads 8300 fluorescence intensity (a.u.); that for “CAGGTGATTTGGCGCTGACAACGAAAAGTCAATTTTGAAACGGAGTCACCTAGTGCAG”, 6680 fluorescence intensity (a.u.).
As to “GTCAACTAATCTGCCATTGATAATTTAAGATAACATATAACGGAGTCACCTAGTGCAG”, the binding signal was 4490 fluorescence intensity (a.u.).
The value for “GAATTAGACAGCCGTTGGAGCCCTTCGACCCCTCCTTGTCCGGAGTCACCTAGTGCAG” was 3990 fluorescence intensity (a.u.); that for “ATAACGTTGATTTGGGCAACAAATTAAATAGGCACAGTAACGGAGTCACCTAGTGCAG” was 19500 fluorescence intensity (a.u.); that for “CTGAGATTTGCTTGTTTATTGTTATGTTTCAGGAAATGGGCGGAGTCACCTAGTGCAG” was 11400 fluorescence intensity (a.u.).
The result for “TTTTGTAACTGATCGTTATTAGATCGGATTTGTTCATTGTCGGAGTCACCTAGTGCAG” reads 3360 fluorescence intensity (a.u.); that for “TTTTAATTTACTAATACTTTTAAGTCACTAAGAATATATGCGGAGTCACCTAGTGCAG”, 8540 fluorescence intensity (a.u.).
The value for “CTGTGATTTATTGGCTTGCAATGAGCGCACAAAAGAGGTTCGGAGTCACCTAGTGCAG” was 29400 fluorescence intensity (a.u.); that for “TAAATGGAAATTTACAATATGTTTTGTAGTACTTACGTGACGGAGTCACCTAGTGCAG” was 3580 fluorescence intensity (a.u.); that for “AACTGACTGGCACGTCCGTATCTCACCAACCTTTGGTCCTCGGAGTCACCTAGTGCAG” was 15000 fluorescence intensity (a.u.).
With “CAAACTGTCCAATTAGGCCCATTTACAAATTCACAAATATCGGAGTCACCTAGTGCAG”, the binding signal is 5140 fluorescence intensity (a.u.).
The value for “ACATAATAACAAGTTAATACTAATTAATGTCAACTTGAATCGGAGTCACCTAGTGCAG” was 11100 fluorescence intensity (a.u.); that for “AGTAGATAATTCATTGGATAATTAATCAAACACAGCATATCGGAGTCACCTAGTGCAG” was 10700 fluorescence intensity (a.u.); that for “GCTGCTAATTAACCATCATCTACTAGAAATCAAAGAACTACGGAGTCACCTAGTGCAG” was 8160 fluorescence intensity (a.u.).
The value for “AATAAATTATAAGTAAATAAATATGGAGTTATTTTACCCCCGGAGTCACCTAGTGCAG” was 28600 fluorescence intensity (a.u.).
For “ATAAATGGTGAAGGTTGTGATTTGATGAGTAGTGTAGGTACGGAGTCACCTAGTGCAG”, the binding signal is 5990 fluorescence intensity (a.u.).
The value for “TTCTTGCAATAATCAATCAACCTCAGTTGAAGACATGTTGCGGAGTCACCTAGTGCAG” was 19900 fluorescence intensity (a.u.); that for “CCCTTCTCATCAGTTGTCAGTCACGCATCGGCGCCGCCCTCGGAGTCACCTAGTGCAG” was 3300 fluorescence intensity (a.u.).
Regarding “TCGTGATGACAGTTTACTCTTTAAATGAGAGTAATTAACTCGGAGTCACCTAGTGCAG”, the binding signal is 17400 fluorescence intensity (a.u.).
The value for “TATATGATTTATAAGCCGGTGGATTTACTGTCCTAAGTTTCGGAGTCACCTAGTGCAG” was 23400 fluorescence intensity (a.u.); that for “AGACGGAATTGGAATGGTAATTTAAGATGTTGCTTTTGTACGGAGTCACCTAGTGCAG” was 9460 fluorescence intensity (a.u.).
